The results in this text go back to ChEMBL document CHEMBL1156829.

The structures appear in SMILES notation. The full ranking holds about 5,400 compounds; the median of “IFI” is about 2, and the highest 2% start at about 22. This is one part of the list.

This test can be described thus: NOVARTIS: Inhibition Frequency Index (IFI) - the number of HTS assays where a compound showed > 50% inhibition/induction, expressed as a percentage of the number of assays in which the compound was tested. It is filed as functional.
In turn, `Cc1nc(CC(=O)N2CCCC(CNC(=O)C3(c4ccc(Cl)cc4)CC3)C2)cs1` (configuration not stated) returned an IFI of 0%.

For the molecule `CCCCCCCCCCCC(OC(=O)C(CCCCN(O)C(C)=O)NC(=O)c1coc(-c2ccccc2O)n1)C(C)C(=O)NC1CCCCN(O)C1=O` (configuration not stated), the IFI is 6.9%. The value for `CCc1cccc2c(C#N)cn(CC(=O)Nc3ccc(OC)cc3)c12` was 7.69%; that for `CN1CCN(c2nc(NN=Cc3cc(Br)c(O)cc3O)nc(Nc3ccc([N+](=O)[O-])cc3)n2)CC1` was 7.69%. With `COc1ccccc1N1CCN(c2ccc(NC(=O)c3ccc(F)cc3)cc2C(=O)N2CCCC2)CC1` the figure was 0.917%. With `Brc1ccc(Nc2nc3ccccc3nc2Nc2ccc(Br)cc2)cc1`, the IFI stood at 14.2%. The value for `CCN(CC)CCCC(C)Nc1ccnc2ccc([N+](=O)[O-])cc12` (configuration not stated) was 0%; that for `CC(C)C(=O)NC(Nc1ccc([N+](=O)[O-])cc1)C(Cl)(Cl)Cl` (configuration not stated) was 0%. Turning to `CCC(=O)N1CCc2cc(Br)cc(S(=O)(=O)N3CCN(CC)CC3)c21`, the IFI turned out to be 0%. With `CN(C)c1ccc(/C=C/C(=O)NC(=O)c2ccccc2O)cc1` the figure was 10.6%; with `O=c1c(=Cc2ccc(Cl)cc2)sc2nc3ccccc3n12`, 3.09%. With `CCN(CC)c1ccc(N=Cc2ccc(Sc3nc4ccccc4s3)o2)cc1` the figure was 9.3%. `Oc1c2c(nc3cc(-c4ccc(Cl)cc4)nn13)CCCC2` showed an IFI of 7.14%. The value for `COc1ccc(CNC(=O)c2ccc3c(c2)N=C(/C=C/c2ccccc2)N(CCN2CCOCC2)C3)cc1` was 8.54%; that for `Cc1cccc(NC(c2ccncc2)c2ccc3cccnc3c2O)n1` (configuration not stated) was 7.14%; that for `COc1ccc(Nc2nc(NCc3ccccc3)c3ccccc3n2)cc1` was 7.3%. The value for `Cc1ccc(N2C(N)=NC(N)=NC2(C)C)cc1` was 5.3%; that for `COC(=O)C1C(=O)C2=C(CC1C)NC(=O)CC2c1ccc(Cl)cc1Cl` (configuration not stated) was 0%; that for `COc1ccc2c(C)nc(NC(=N)N)nc2c1` was 0%. With `CCOc1ccccc1-n1c(SCC(=O)c2ccc(Cl)cc2)nc2[nH]ncc2c1=O` the figure was 1.16%; with `COCC(=O)NCc1ccc(OC2CCN(CC(c3ccccc3)c3ccccc3)CC2)cc1`, 1.41%. Regarding `O=[N+]([O-])c1cccc(C(O)CNCc2ccc3c(c2)OCO3)c1` (configuration not stated), the IFI is 0.813%. With `CCCCCCN(C(=O)c1ccc(C(C)(C)C)cc1)C(CC)c1nc2ccccc2c(=O)n1-c1ccccc1OC` (configuration not stated) the figure was 0.926%. With `COc1ccc(S(=O)(=O)ON=C2C=C(C(C)C)C(=O)C=C2C)cc1` the figure was 7.69%; with `CCCCCCN(C(=O)c1cccc(OC)c1)C(CC)c1nc2ccccc2c(=O)n1-c1ccc(Cl)cc1C` (configuration not stated), 0.935%; with `O=C(Nc1ccc(Oc2cccnc2)cc1)C1CCN(Cc2cc3ccccc3o2)CC1`, 0%. With `CC(C)(C)CC(=O)N1CCC[C@@H]2CN(C(=O)CCOc3ccccc3)CC[C@@H]21` the figure was 1.92%.
